In US20040248764A1 (priority 2001, published 2004):
Where two headings read alike, the source gives them in different places.

Assays:
[1] = Method: Alternatively, the solution can be prepared without a surfactant by placing the terpene, e.g., citral, in water and mixing under solution-forming shear conditions until the terpene is in solution.
[…] . The citral and water were blended in a household blender for 30 seconds.
Alternatively, moderate agitation also prepared a solution of citral by shaking by hand for approximately 2-3 minutes.
. Examples of these levels are as follows.

H. pylori = conditions: cited from earlier work
[2] = tested on: Xylella sp. strains Shiraz, Melody, Coyaga; assay type: cell-based; set-up: key: NG = No Growth; TNTC = Too Numerous To Count; conditions: 10^8 CFU

C=C(C)C1CC=C(C)C(=O)C1 (centres unmarked) [Carvone]
Solution level (maximum level of terpene that can be solubilized) [1]: 500 ppm

CC(C)=CCC/C(C)=C/CO [Geraniol]
growth of H. pylori in vitro (H. pylori): inhibited the growth | Solution level (maximum level of terpene that can be solubilized) [1]: 500 ppm

CC(=O)/C=C/C1=C(C)CCCC1(C)C [b-ionone]
Solution level (maximum level of terpene that can be solubilized) [1]: 500 ppm

CC(C)=CCCC(C)=CC=O [citral, 3,7-dimethyl-2,6-octadien-1-al]
Xylella growth (CFU) ([2]; strain Coyaga, 125 ppm): NG | Xylella growth (CFU) ([2]; strain Coyaga, 250 ppm): NG | Xylella growth (CFU) ([2]; strain Melody, 125 ppm): NG | Xylella growth (CFU) ([2]; strain Melody, 250 ppm): NG | Xylella growth (CFU) ([2]; strain Shiraz, 125 ppm): NG | Xylella growth (CFU) ([2]; strain Shiraz, 250 ppm): NG*

Terpeniol
Solution level (maximum level of terpene that can be solubilized) ([1]; water, no surfactant, solution-forming shear): 500 ppm
